According to patent US20150110781A1:

Biological target: Inactivated Rabies Virus Vaccine (Rabipur®, Chiron Behring GmbH & Co.) (rabies virus)

B1: Hu2G11-2 (antibody)
heavy: EVQLVESGGGLVQPGGSLILSCAASGFTFSGFAMSWVRQAPGKGLEWVATISSGGTYTYSPDSVMGRFTISRDNAKNSLYLQMNSLRAEDTAVYYCARRLRRNYYSMDYWGQGTMVTVSS[no letters for human IgG1 constant region]
light: DIVMTQSPLSLPVTPGEPASISCKSTKSLLNSDGFTYLDWYLQKPGQSPQLLIYLVSNRFSGVPDRFSGSGSGTDFTLKISRVEAEDVGVYYCFQSNYLPFTFGGGTKVEIKRTVAAPSVFIFPPSDEQLKSGTASVVCLLNNFYPREAKVQWKVDNALQSGNSQESVTEQDSKDSTYSLSSTLTLSKADYEKHKVYACEVTHQGLSSPVTKSFNRGEC
IC50: 0.23 mg/L
